Drawing on PubChem BioAssay AID1346428 (National Center for Advancing Translational Sciences (NCATS), 2018), this text covers activation for 84 compounds.

Values joined by “and” are separate entries in the source; they are usually repeats but may differ in a detail not shown here. Equal values may be shown once. In all, about 48,000 compounds went through this assay and about 1,200 (2.5%) were called active. Another 2% or so got no clear call; they are omitted.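 How the source made its calls: active means activation of at least 60% and not above a set upper limit (about 1 call in 100 departs from these limits); inconclusive means activation of 40% to 60%, or above that upper limit; inactive means activation under 40%.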 Some of the results follow.

The target of this experiment is Probable G-protein coupled receptor 32 (Homo sapiens) (UniProt O75388). Briefly: qHTS for Agonists of Human Resolvin D1 Receptor DRV1. Further: 0% is about no effect. The note with it: CHO-K1 GPR32 beta-arrestin PathHunter luminescence, 90 min; at 76.9 µM; stronger effect = higher value; zero percent set by DMSO-only wells. The gist of the method: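 Step 1: seed CHO-K1 GPR32 beta-arrestin cells, 2,500/well, overnight at 37 °C. Step 2: add compounds, 90 min at 37 °C. Step 3: detection reagent, 1 h ambient, then luminescence.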
Sequence of UniProt O75388 (O75388 whole entry, looked up): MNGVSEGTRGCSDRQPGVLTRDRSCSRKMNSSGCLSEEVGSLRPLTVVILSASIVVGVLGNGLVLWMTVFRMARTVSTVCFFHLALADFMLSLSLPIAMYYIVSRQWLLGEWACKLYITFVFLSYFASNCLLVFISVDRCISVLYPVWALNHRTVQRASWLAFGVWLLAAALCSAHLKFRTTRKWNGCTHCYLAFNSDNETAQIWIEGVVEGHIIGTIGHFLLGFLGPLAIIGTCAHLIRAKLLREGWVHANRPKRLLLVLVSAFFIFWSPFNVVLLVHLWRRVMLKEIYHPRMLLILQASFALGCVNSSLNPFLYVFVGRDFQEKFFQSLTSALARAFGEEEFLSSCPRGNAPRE
Consider `CCCCCn1c(=O)[nH]c2cc(C(=O)NCc3ccc(C)cc3)ccc2c1=O`, for which the activation was inactive: -0.0575%.

`Cc1ccc(C(=O)c2oc3ccccc3c2NC(=O)c2nc(S(C)(=O)=O)ncc2Cl)cc1F`: the activation was active: 74.6%.

Regarding `COc1cccc(NC(=O)CSc2nc(-c3ccccc3)nc3c2Cc2cc(Cl)ccc2O3)c1`, the activation was inactive: -14.2%.

Turning to `Nc1ncnc2c1c(-c1ccc(Oc3ccccc3)cc1)cn2C1CCCC1`, the activation was inactive: -6.18%.

In the case of `O=S(=O)(c1ccccc1)c1nc(-c2ccc(F)cc2)oc1N1CCOCC1`, the activation was inactive: -37.2%.

With `CCOc1cc(C#N)c(NC(=O)c2ccc(OC)c(S(=O)(=O)N3CCCC3)c2)cc1OCC`, the activation is inactive: -7.2%.

As for `CCOC(=O)c1cccc(NC(=O)CC(c2ccc(F)cc2)N2Cc3ccccc3C2=O)c1` (centres undefined), the activation was inactive: -4.23%.

With `COc1ccccc1NC(=O)N(Cc1ccco1)C1CCN(C(C)=O)CC1`, the activation was inactive: -25.3%.

As for `CCCOc1ccc(OC(=O)c2sc3ncn(Cc4cccc(F)c4)c(=O)c3c2C)cc1`, the activation was inactive: -1.45%.

For the compound `C=CC1(C)CC(=O)C2(O)C(C)(O1)C(OC(C)=O)C(O)C1C(C)(C)CCC(O)C12C` (centres undefined), the activation was inactive: 45.7%.

On to `O=C(c1nc(-c2ccc(Cl)cc2)n2c1CCCCC2)N1CCN(c2ccc(F)cc2)CC1`, for which the activation was inactive: 2.95%.

As for `CCOC(=O)c1c(NC(=O)c2cc(-c3ccccc3)on2)sc2c1CCCC2`, the activation was inactive: -0.671%.

In the case of `CC(C)Cn1c(=O)c2sccc2n2c(CCCC(=O)Nc3ccc(Cl)cc3)nnc12`, the activation was inactive: -12.7%.

Consider `CS(=O)(=O)c1ncc(N(Cc2ccccc2)Cc2ccco2)c(C(=O)Nc2cccc(C(F)(F)F)c2)n1`, for which the activation was inactive: -16.3%.

As for `Cc1cc(C)c(NC(=O)CSc2nc(=O)n(Cc3ccco3)c3c2CCC3)c(C)c1`, the activation is inactive: -2.57%.

As for `O=C(NCCc1ccc(Cl)cc1)c1ccc2nc(Cc3ccccc3)oc2c1`, the activation is inactive: -10.8%.

For the compound `Cc1cc2c(cc1S(=O)(=O)Nc1cccc(C(F)(F)F)c1)OCCN2C`, the activation was inactive: -15.5%.

For the compound `CCOc1ccc(-c2nonc2NC(=O)c2ccccc2C)cc1`, the activation was inactive: 29.1%.

On to `COc1ccc2c(Sc3ccccc3)c(C(=O)NCCN(C)C)[nH]c2c1`, for which the activation was inactive: -16.6%.

`CCc1ccc(CN(Cc2ccco2)C(=O)c2cc(-c3ccc(Cl)cc3)on2)cc1`: the activation is inactive: 0.479%.

For `CC(C)(C)C1CCc2c(sc(NC(=O)c3ccccc3F)c2C(=O)N2CCCCC2)C1` (centres undefined), the activation is inactive: -35.6%.

As to `CCN(CC)C(=O)c1sc2c(c1C)c(=O)n(-c1ccc(C)c(C)c1)c(=O)n2CC(=O)Nc1ccc(F)cc1`, the activation is inactive: -12.4%.

Regarding `O=C(Cc1ccc(Cl)cc1)Nc1ccc2oc(-c3ccccc3)nc2c1`, the activation is inactive: 12.9%.

On to `CC(C)Oc1ccc(CNC(=O)Cc2ccc(NC(=O)N3CCSc4ncccc43)cc2)cc1`, for which the activation is inactive: 5.7%.

Regarding `Cc1ccc2c(c1)c(=O)c(S(=O)(=O)c1ccc(F)cc1)cn2CC(=O)Nc1ccc2c(c1)OCO2`, the activation is inactive: -9.56%.

As for `Cc1ccc(Cl)cc1NC(=O)NC1COc2ccccc2C1` (centres undefined), the activation was inactive: 4.39%.

Regarding `CCC(Cn1nnc2ccccc2c1=O)NC(=O)Nc1cc(Cl)ccc1OC` (centres undefined), the activation is inactive: -22.9%.

On to `Cc1cccc(C2N3CC4(C(C)C)CN2CC(C(C)C)(C3)C4=O)c1` (centres undefined), for which the activation is inactive: 23%.

Take `Cc1ccc(-n2ncc(C(=O)NCc3cccs3)c2C2CCN(C(=O)OC(C)(C)C)CC2)cc1C`: the activation was inactive: -28.9%.

As to `CN1CCC[C@@H]1c1cccnc1`, the activation was inactive: -0.0583%.

As for `CC(C)CN(CCNC(=O)c1cc(=O)[nH]c2ccc(S(=O)(=O)N3CCCCCC3)cc12)CC(C)C`, the activation was inactive: -26%.

`Cn1c(=O)oc2cc(S(=O)(=O)NCCC(=O)Nc3ccc(F)c(Cl)c3)ccc21`: the activation was inactive: 3.19%.

On to `Cc1ccc(C)c(OCCOCCn2c(-c3ccc(Br)cc3)nc3ccccc3c2=O)c1C`, for which the activation was inactive: 9.11%.

As for `Cc1cccc(Cn2c(CNS(=O)(=O)c3ccc(Cl)s3)nc3cccnc32)c1`, the activation was inactive: -36.2%.

On to `Cc1ccc2[nH]c(CSc3nnc(NC(=O)COc4ccccc4F)s3)cc(=O)c2c1`, for which the activation was inactive: 34.9%.

In the case of `CCOc1ccc(-c2cc3c(=O)n(CC(=O)Nc4c(C)cccc4C)ccn3n2)cc1`, the activation is inactive: -3.83%.

On to `Fc1ccc(-c2csc(-c3nc(-c4ccc(Br)s4)cs3)n2)cc1`, for which the activation is inactive: 1.25%.

On to `Cc1ccc(Cl)cc1NC(=O)/C(C#N)=C/c1c(C)n(Cc2ccccc2)c2ccccc12`, for which the activation was inactive: -2.71%.

On to `CC1CCCCN1C(=O)CSc1nnc(-c2cccc(Cl)c2)o1` (centres undefined), for which the activation was inactive: 11.8%.

Turning to `CCOc1ccc(NC(=O)CCCN2C(=O)C(c3ccccc3)Oc3cccnc32)cc1` (centres undefined), the activation is inactive: -7.34%.

`COc1cccc(NC(=O)C(=O)NCC(c2cccnc2)N2CCN(c3ccccc3)CC2)c1` (centres undefined): the activation was inactive: 19.7%.

For the compound `Cc1ccccc1-n1nc(CO)c(C(=O)NCCc2ccccc2)n1`, the activation is inactive: -11.7%.

Regarding `CC1CCc2c(sc(NC(=O)c3ccccc3)c2C(=O)Nc2ccccc2)C1` (centres undefined), the activation is inactive: 31%.

As for `Cc1cccc(CSc2cn(CC(=O)N3CCCCCC3)c3ccccc23)c1`, the activation is inactive: -12.8%.

Regarding `COc1ccc(OC)c(CNc2ncnc3onc(-c4ccc(Cl)cc4)c23)c1`, the activation was inactive: 0.605%.

`CCOC(=O)CSc1nc2ccc(NC(=O)COc3ccccc3)cc2s1`: the activation was active: 61.1%.

On to `CCCCN(C)CCNC(=O)C1CCN(c2nc3ccc(CC)cc3s2)CC1`, for which the activation was inactive: -14.1%.

Take `O=C(NCc1ccc(Cl)cc1)c1cnc2sc(N3CCCCCC3)nn2c1=O`: the activation is inactive: -3.86%.

`CCCOc1ccc(-c2cccc(NS(=O)(=O)c3cc(OC)ccc3OC)c2)nn1`: the activation was inactive: -0.795%.

For the compound `O=C(CCC(=O)N1Cc2ccccc2Oc2ncccc21)NCc1ccccc1Cl`, the activation is inactive: -4.84%.

On to `COc1ccc(Cl)cc1NC(=O)C1CCN(c2ncnc3c2nc2n3CCCCC2)CC1`, for which the activation was inactive: -2.22%.

On to `CCN(CC)c1ccc(NC(=O)c2cnn3c(C(F)F)cc(-c4ccccc4)nc23)cc1`, for which the activation was inactive: -27.1%.

With `COc1ccc(C(c2c(O)cc(C)n(Cc3ccco3)c2=O)N2CCN(c3ccccc3)CC2)cc1` (centres undefined), the activation was inactive: -11.3%.

As to `CCC(=O)N1CCc2cc(S(=O)(=O)CCC(=O)N3CCN(c4ccccc4F)CC3)ccc21`, the activation was inactive: -4.4%.

As for `Cc1ccc(CNC(=O)c2cc3sccc3n2Cc2ccc(F)cc2)cc1`, the activation was inactive: -2.77%.

For the compound `CN1CCN(C(CNC(=O)C(=O)Nc2ccc(F)cc2)c2cccnc2)CC1` (centres undefined), the activation was inactive: 0.807%.

With `Cc1cc2oc(C(=O)Nc3nc(-c4ccccc4)ns3)c(C)c2cc1Cl`, the activation is inactive: -9.07%.

On to `CCOc1ccc(CNC(=O)c2sc3nc(C)cc(C)c3c2-n2cccc2)cc1`, for which the activation was inactive: 8.49%.

With `Cc1ccc(NC(=O)CN2C(=O)CCc3cc(S(=O)(=O)N4CCOCC4)ccc32)c(C)c1`, the activation is inactive: 0.249%.

For the compound `CN1CCN(CCCN2c3ccccc3Sc3ccc(Cl)cc32)CC1`, the activation was inactive: 26.2% and inactive: 2.46%.

For the compound `Cc1ccc(C)c(Cn2nnc(C(=O)NCc3ccccc3)c2N)c1`, the activation was inactive: 9.77%.

Turning to `CCC(CC)C(=O)N1CCc2cc(OC)c(OC)cc2C1COc1ccccc1OC` (centres undefined), the activation is inactive: 8.37%.

As for `CC(=O)c1ccc(NS(=O)(=O)c2ccc3[nH]c4c(c3c2)CCCCCC4)cc1`, the activation was active: 72.7%.

`Cc1nc2cc(-c3cccc(F)c3)nn2c(C)c1CCC(=O)NC1CCCCC1`: the activation is inactive: 4.49%.

Regarding `CCOc1ccc(NC(=O)CSc2nnc(NC(=O)Nc3ccccc3)s2)cc1`, the activation is inactive: 5.06%.

For `CCOc1ccc(-c2nonc2NC(=O)COc2ccc(C)c(C)c2)cc1OCC`, the activation is inactive: 12.8%.

`O=C(c1ccc2c(c1)N(Cc1cccc(Cl)c1)C(=O)c1ccccc1S2(=O)=O)N1CCN(c2cccc(C(F)(F)F)c2)CC1`: the activation was inactive: -21%.

As for `COc1ccc(-c2nn(C)c3sc(C(=O)N4CCN(c5cc(Cl)ccc5C)CC4)cc23)cc1OC`, the activation was inactive: 14.3%.

On to `COc1ccc(C(=O)CCC(=O)Nc2cccc(C(C)=O)c2)cc1`, for which the activation was inactive: 5.81%.

As for `COc1ccc(CCNC(=O)Cn2c(=O)c3cccn3c3ccc(F)cc32)cc1OC`, the activation is inactive: -16.7%.

As to `CCOc1ccc(-c2cnc(NCc3cccc(Cl)c3)n2C)cc1`, the activation is inactive: -6.79%.

Turning to `N=c1c[n+](N2CCOCC2)[n-]o1`, the activation is inactive: 11.9%.

On to `Cc1ccc(Cn2c(=O)n(Cc3ccc(Cl)cc3)c(=O)c3cccnc32)cc1`, for which the activation was inactive: -8.53%.

`CCOc1ccc(Nc2oc(/C=C/c3ccc(F)cc3)nc2C#N)cc1`: the activation is inactive: 0.997%.

With `COc1ccc(CNc2nc3c(S(=O)(=O)c4ccccc4)nnn3c3ccc(Cl)cc23)cc1`, the activation is inactive: -10.5%.

With `COc1ccc(NC(=O)c2oc3c(c2C)-c2nn(Cc4c(F)cccc4Cl)cc2CC3)c(OC)c1`, the activation is inactive: -18%.

As to `Cc1ccc(OCC(=O)Nc2ccc(C(=O)OCc3cc(=O)n4nc(C5CC5)sc4n3)cc2)cc1`, the activation was inactive: -9.07%.

For the compound `Cc1ccc(NC(=O)C(=O)NCC(c2cccnc2)N2CCN(C)CC2)cc1C` (centres undefined), the activation was inactive: -1.32%.

`Cc1cc(C)c2c(CC(=O)Nc3nnc(C(C)C)s3)coc2c1`: the activation is active: 65.2%.

`Fc1ccccc1CNCCCSc1nnnn1-c1ccccc1`: the activation was inactive: 23.1%.

Consider `O=C(CSc1nc(=O)[nH]c2c1CCCC2)Nc1cc(C(F)(F)F)ccc1Cl`, for which the activation is inactive: -7.23%.

As to `COc1ccc(-c2nnc(Nc3ccc(OCC(N)=O)cc3)c3ccccc23)cc1`, the activation is inactive: 9.64%.

As for `O=C1CCSC2(C(=O)N(Cc3ccc(F)cc3)c3ccccc32)N1c1ccccc1` (centres undefined), the activation is inactive: -20.1%.

On to `Cc1cc(C)n(-c2nc3ccccc3nc2Nc2cccc(C(F)(F)F)c2)n1`, for which the activation is inactive: 7.13%.
